# Results from PubChem BioAssay AID1347417 (National Center for Advancing Translational Sciences (NCATS), 2020).
# Among all 120,000 compounds or so, about 5,300 (4.4%) were called active. This list was built around the results that the source calls inconclusive (neither active nor inactive); the mix of calls is not that of the screen. Calls come from the whole dose curve; as a rule, active = well fitted inhibition curve with a large enough effect; inconclusive = small, poorly fitted or top-dose-only effect; inactive = no such curve, though single readings can be large or run the other way. Potencies of inconclusive entries are doubtful fits and often do not repeat.
# Test: qHTS Primary assay for Inhibitors of Plasmodium falciparum Dd2 growth in vitro; note: nearly all actives have a fitted effect of over 65% in size;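 for activity, negative = inhibition: plate controls were DMSO vehicle for no effect and reference drug for full effect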
# Settings: P. falciparum Dd2 growth, SYBR Green, 72 h; activity, negative = inhibition: at 28.9 µM (top of the series) unless noted; series mostly up to 28.9 µM
# Method in brief: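 Readout: SYBR Green fluorescence, 485 nm excitation, 535 nm emission, after ~16 h lysis at 37C. Before that, Dd2-infected red cells (2.5% hematocrit) grew 72 h with compound, 29 uM top final concentration.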
# Potency is the fitted concentration of half-maximal effect; tags give direction and shape of the fitted curve.
Compound,Potency,"activity, negative = inhibition"
Cc1noc(-c2cn(C3CCCN(C(=O)c4ccc(OC(F)(F)F)cc4)C3)nn2)n1 (stereo unspecified),inactive,
CC(=O)N1CCc2cc(S(=O)(=O)NC(Cc3ccccc3)C(=O)Nc3cc(C)cc(C)c3)ccc21 (stereo unspecified),"inconclusive: 0.0794 µM [inhibitor, full curve, poor fit]",
CC1CCCCN1CCCNC(=O)Cn1ncc2c3ccccc3n(Cc3ccccc3)c2c1=O (stereo unspecified),inactive,
COc1cccc(C(=O)NC2CCN(C(=O)c3cc4c(=O)[nH]c(C)cn4n3)CC2)c1,inactive,
COc1ccccc1C1C(C(=O)Nc2ccccc2)=C(C)Nc2nc(-c3ccccc3)nn21 (stereo unspecified),"inconclusive: 10 µM [inhibitor, single point]",
NCC1CCCCC(=O)N1 (stereo unspecified),inactive,
COc1ccc(-c2nn3c(=O)cc(CN4CCN(S(=O)(=O)c5ccc(C)cc5)CC4)nc3s2)cc1,active: 11.2 µM,
COc1cccc(CNC(=O)N(C)C2CCc3nn(CC4CC4)c(=O)n3CC2)c1 (stereo unspecified),inactive,
O=C1NC2(CCN(Cc3cccc4ccccc34)CC2)Oc2ccccc21,inactive,
Cc1cnc(CC2CCN(C(=O)C(C)C)C2)n1C1CC1 (stereo unspecified),"inconclusive: 17.8 µM [inhibitor, single point]",
CN(C)C[C@@H]1CN(C2CCOCC2)C[C@H]1NC(=O)c1cccc(Cl)c1,"inconclusive: 7.08 µM [inhibitor, partial curve, poor fit]",
COCCNC(=O)[C@@H]1C[C@H](Oc2ccccc2)CN1S(=O)(=O)c1c(C)noc1C,"inconclusive: 17.8 µM [inhibitor, single point]",
COc1ccc(-c2ccc(CCC(=O)O)n2-c2ccccc2O)cc1,"inconclusive: 11.2 µM [inhibitor, single point]",
COc1cccc(-c2n[nH]c3c2CC(=O)N(Cc2ccccc2)C3)c1,"inconclusive: 2.24 µM [inhibitor, full curve, poor fit]",
CCC(CC)C(=O)NC[C@H]1O[C@@H](CC(=O)N2CCN(c3ccc(F)cc3)CC2)[C@H](O)[C@@H]1O,inactive,
Cc1ccsc1C(=O)N1CCC2(CC1)N=C(c1ccc(Cl)cc1)NO2,"inconclusive: 12.6 µM [inhibitor, single point]",
COc1ccc(S(=O)(=O)Nc2cc3c(C(=O)OC(C)C)c(C)oc3c3ccccc23)cc1,"inconclusive: 17.8 µM [inhibitor, single point]",
CC(C)CCN1C(=O)CC[C@]2(C(=O)N(C)Cc3ccco3)CCCC[C@@H]12,"inconclusive: 11.2 µM [inhibitor, partial curve, poor fit]",
O=C(c1cccnc1OC1CCN(Cc2ccccn2)C1)N1CCOCC1 (stereo unspecified),inactive,
O=C(NC1CCN(c2cnn(Cc3ccccc3)c(=O)c2)CC1)C1CCC1,"inconclusive: 17.8 µM [inhibitor, single point]",
CC(=O)c1ccc(NC(=O)c2nc(-c3ccccc3)n(-c3ccccc3)n2)cc1,"inconclusive: 5.62 µM [inhibitor, single point]",
Cc1oc2c(c1C(=O)N(C)CCc1ccccn1)CN(Cc1cccc(F)c1)CC2,inactive,

Compound,Potency,"activity, negative = inhibition"
CN1CCN(CCCNC(=O)C23CCCC=C2N(C2CCCC2)C(=O)CC3)CC1 (stereo unspecified),inactive,
COc1ccccc1NC(=O)CN1C(=O)c2ccccc2Sc2ccc(C(=O)N3CCCC3)cc21,"inconclusive: 17.8 µM [inhibitor, single point]",
CC[C@@H]1[C@@H](NC(=O)c2cc(C)nc3c2c(=O)[nH]c(=O)n3C)[C@@H]2CCO[C@H]12,inactive,
CN1[C@@H](CCC(=O)N2CC[C@@H](O)C2)CNC(=O)[C@@H]2[C@H]1CCN2Cc1csnn1,inactive,
COCC1CN(C2CCC2)CC12CCN(C(=O)Cc1cccc(F)c1)CC2 (stereo unspecified),"inconclusive: 6.31 µM [inhibitor, partial curve, poor fit]",
CN1C[C@@H](NS(=O)(=O)Cc2ccccc2)C[C@H]1c1nc(Cc2ccccc2)no1,inactive,
COC(=O)CN1C(=O)[C@@H]2C[C@@H](O)CN2C2(CN(C3CCN(C(C)=O)CC3)C2)C1=O,inactive,
CCCCn1c(CN(C)Cc2cnn(-c3ccccc3C)c2)cnc1S(=O)(=O)CC,"inconclusive: 15.8 µM [inhibitor, single point]",
CCCCNC(=O)c1cc(-c2ccc(OC)cc2)nc2n[nH]c(-c3cccc([N+](=O)[O-])c3)c12,"inconclusive: 17.8 µM [inhibitor, single point]",
CCc1ccc(NC(=O)CCNS(=O)(=O)c2ccc3c(c2)oc(=O)n3C)cc1,,inconclusive: -81.6% [inhibitor] [at 0.594 µM]
CCc1nc2c(c(-c3ccc(OC)cc3)n1)CCN(Cc1ccc(OC)cc1)CC2,"inconclusive: 11.2 µM [inhibitor, partial curve]",
O=C(CCc1cc2ccccc2[nH]c1=O)N1CCCCC1,"inconclusive: 0.158 µM [inhibitor, full curve, poor fit]",
COCCNC(=O)c1nc(-c2ccccc2OC)c2ccccn12,"inconclusive: 3.55 µM [inhibitor, full curve, poor fit]",
CCCCN1CCN(C(=O)c2cn3ccnc(-c4ccccc4)c3n2)CC1,"inconclusive: 17.8 µM [inhibitor, single point]",
CCC(C(=O)NCc1ccc(OC)c(OC)c1)n1nc(C)c2c(C)n(-c3ccc(C)cc3)nc2c1=O (stereo unspecified),active: 2.82 µM,
Cc1nn(C)c(C)c1CCN(C)C(=O)[C@H]1CN(Cc2ccccc2)C[C@H]1C(=O)O,inactive,
CCOC(=O)c1c(NC(=O)c2cc3nc(-c4ccc(Br)cc4)cc(C(F)(F)F)n3n2)sc(C(C)=O)c1C,inactive,
CC(C)Oc1ccc(C(=O)NCC(c2ccc(N(C)C)cc2)N2CCCC2)cc1 (stereo unspecified),active: 10 µM,
Cc1ccc(C)c(NC(=O)Cn2cc(C(=O)c3cccs3)c3ccccc32)c1,"inconclusive: 10 µM [inhibitor, partial curve, poor fit]",
CC1(C)CC(CN2CCC3(CC2)CC(=O)N(Cc2ccccc2)C3)CCO1 (stereo unspecified),"inconclusive: 12.6 µM [inhibitor, single point]",
N#Cc1cccc(NC(=O)N2Cc3[nH]cnc3C[C@H]2c2nc(-c3ccc(Cl)cc3)no2)c1,"inconclusive: 5.01 µM [inhibitor, partial curve, poor fit]",
COc1cc(C(=O)Nc2ccc3c(c2)N(C2CCCC2)C(=O)c2ccccc2S3)cc(OC)c1OC,active: 8.91 µM,

Compound,Potency,"activity, negative = inhibition"
CCOc1ccccc1NC(=O)C1CCCN1S(=O)(=O)c1ccc2c(c1)C(C)(C)C(=O)N2C (stereo unspecified),"inconclusive: 10 µM [inhibitor, single point]",
CN(C)C(=O)N1CCC(c2nc(C3CCOC3)n[nH]2)CC1 (stereo unspecified),inactive,
O=C1NC2(Cc3ccccc31)CN(C(=O)c1ccc(C(F)(F)F)cc1)C2,"inconclusive: 10 µM [inhibitor, partial curve]",
Cc1noc(-c2ccco2)c1C(=O)NCc1cccc2ccccc12,"inconclusive: 4.47 µM [inhibitor, partial curve]",
COc1ccc(Cl)cc1CNCCSc1nnnn1-c1ccccc1,"inconclusive: 8.91 µM [inhibitor, partial curve]",
COc1ccc(NC(=O)CCc2nc3c(C)nn(-c4ccc(C)cc4)c3n(C)c2=O)cc1,inactive,
Cc1ccc(NC(=O)C2CCN(S(=O)(=O)c3c(C)noc3/C=C/c3cccs3)CC2)cc1F,"inconclusive: 17.8 µM [inhibitor, single point]",
CCCS(=O)(=O)c1c(S(=O)(=O)CCC)c2cc(CC)ccn2c1C(=O)c1ccc(Cl)cc1,"inconclusive: 4.47 µM [inhibitor, partial curve]",
Cc1cccc(N(CC(=O)NCCSCc2cccc(Cl)c2)S(=O)(=O)c2ccccc2)c1C,inactive,
COc1ccc(C(C)=O)cc1CSc1nc(NCCc2ccccc2)c2ccccc2n1,active: 11.2 µM,
COc1ccccc1CCC(=O)N1CCN(c2cc(-c3cccs3)[nH]n2)CC1,inactive,
Cn1nc(C(=O)NCc2nnc3ccc(-c4ccccc4)nn23)c2ccccc21,"inconclusive: 3.98 µM [inhibitor, single point]",
Cc1ccc(CN2CCn3c(nnc3[C@@H]3C[C@@H](O)CN3C)C2)s1,inactive,
COc1cccc(CN2CCCC(c3nc(-c4cccnc4)no3)CCNC(=O)CC2)n1 (stereo unspecified),inactive,
COc1ccccc1-c1cc(C(=O)Nc2cc(OC)c(OC)c(OC)c2)no1,"inconclusive: 10 µM [inhibitor, partial curve, poor fit]",
CCN(CC)CCCNC(=O)c1nn(C)c2c1CSc1ccccc1-2,active: 5.62 µM,
O=C(c1cncc(Br)c1)N1CCC(OCC2CC2)C1 (stereo unspecified),inactive,
CCN(CC)c1ccc(C(=O)NCc2ccc3c(c2)CCN3C(=O)c2ccc(F)cc2)cc1,"inconclusive: 10 µM [inhibitor, partial curve, poor fit]",
C[C@H]1[C@@H]2[C@@H](O)C([C@H](C)C(=O)NCc3cccs3)CC[C@@]2(C)CC[C@@H]1NC(=O)c1cnccn1 (stereo partly specified),"inconclusive: 11.2 µM [inhibitor, single point]",
CC[C@H]1CN2CC[C@H]1C[C@@H]2CNS(=O)(=O)c1cccc(F)c1,"inconclusive: 20 µM [inhibitor, single point]",
CCCCN(CC)CCNC(=O)C1CCCN(c2ncnc3onc(C)c23)C1 (stereo unspecified),"inconclusive: 6.31 µM [inhibitor, partial curve]",
COc1ccccc1-c1nc(C(=O)N2CCC(C#N)CC2)n2ccccc12,"inconclusive: 17.8 µM [inhibitor, partial curve, poor fit]",
